This list was built around the results that the source calls inconclusive (neither active nor inactive); the mix of calls is not that of the screen. For some assays here: Potencies of inconclusive entries are doubtful fits and often do not repeat. Activity calls are given as the source filed them. Unless noted, calls follow the shape of the dose curve; as a rule, active = well fitted curve in the direction sought with a large enough effect; inconclusive = small, poorly fitted or top-dose-only effect, or another doubt; inactive = no such curve, though single readings can be large; an effect the other way counts as inactive or inconclusive.
Columns and labels:
[1] = molecular target: 3',5'-cyclic-AMP phosphodiesterase 4B (Homo sapiens) (UniProt Q07343); assay: qHTS Assay for Inhibitors of PDE-IV (AID 607; active = well fitted activation curve with a large enough effect in the main read-out, with a control signal flat, not every such curve was filed as active; inconclusive = small, poorly fitted or top-dose-only effect, or effect the other way, or a change in a side signal; also: potency is read from the fitted curve at half-maximal effect); conditions: HEK293 ACTOne CNG channel cells, membrane potential fluorescence; activation (PDE inhibition): at 22.9 µM (top of the series)
Summary of the method: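 HEK293 ACTOne cells with CNG channel (1000/well), endogenous PDE4; membrane potential dye, compounds up to 22.9 uM final. Fluorescence Ex 535/Em 590; RO 20-1724 (100 uM final) as reference.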

[2] = molecular target: Cytochrome P450 2C9 (Homo sapiens) (UniProt P11712); assay: qHTS Assay for Inhibitors and Substrates of Cytochrome P450 2C9 (AID 883); also: % is scaled to controls: 0 for no effect and ±100 for the full control effect; nearly all actives have a fitted effect of over 60% in size
Summary of the method: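 Signal: luciferase luminescence reporting luciferin produced by CYP2C9. Conditions: 10nM enzyme, Luciferin-H 100uM at KM, 25mM KPO4, 37C, 60 min NADPH-driven reaction. Reference: 57uM sulphaphenazole as 100% inhibition.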

[3] = test system: Zika virus NS2B-NS3 protease (unlinked complex); assay: Primary screen GU Rhodamine qHTS for Zika virus inhibitors: Unlinked NS2B-NS3 protease assay (AID 1347159); conditions: Recombinant ZIKV NS2B-NS3 protease, Rhodamine110 substrate fluorescence; activity change, negative = inhibition: at 107 µM (top of the series); also: potency is read from the fitted curve at half-maximal effect; nearly all actives have a fitted effect of over 60% in size
Summary of the method: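 Noncovalent NS2B hydrophilic domain/NS3 protease complex (25 nM final) in 10 mM Tris-HCl pH 8.0, 0.01% Tween 20, preincubated 15 min with compounds (up to 114 microM), then 1.5 microM Rhodamine110 substrate. Fluorescence change over 15 min fitted to 4-parameter Hill.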

[4] = Primary qHTS for inhibitors of nuclear receptor binding SET domain protein 2 (NSD2) in an isogenic RCH-ACV NSD2 p.E1099K mutant (9B) (AID 1645876); conditions: activity change, negative = viability loss: at 44.9 µM (top of the series) unless noted; also: nearly all actives have a fitted effect of over 70% in size; also: potency is read from the fitted curve at half-maximal effect
[5] = Primary qHTS for inhibitors of nuclear receptor binding SET domain protein 2 (NSD2) in an RCH-ACV wild type WT cells (2C) (AID 1645877); conditions: activity change, negative = cell killing: at 44.9 µM (top of the series) unless noted; also: nearly all actives have a fitted effect of over 70% in size; also: potency is read from the fitted curve at half-maximal effect; as to activity change, negative = cell killing: % is scaled to controls: 0 for no effect and ±100 for the full control effect
[6] = molecular target: Glutathione peroxidase 1 (Homo sapiens) (UniProt P07203); assay: Primary qHTS Assay for Inhibitors of Recombinant Selenoprotein Glutathione Peroxidase 1 (GPX1) (AID 1845191); also: potency is read from the fitted curve at half-maximal effect; nearly all actives have a fitted effect of over 65% in size
Summary of the method: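 GR-coupled assay: compounds preincubated 30 min at room temperature with GPX1, then reaction started with CHP; final 10 nM GPX1, 1 mM GSH, 0.5 mM CHP, 0.5 mM NADPH, 100 nM GR, 0.01% BSA, pH 7.5 Tris buffer. NADPH fluorescence (340/450 nm) read at 0 and 15 min.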

[7] = test system: HeLa; assay: Primary qHTS to identify gynecologic anti-cancer compounds using libraries of approved drugs and bioactive compounds (AID 1345084); conditions: Gynecologic cancer cell panel viability, ATPlite luminescence, 48 h; series mostly up to 57.5 µM; also: nearly all actives have a fitted effect of over 55% in size; also: potency is read from the fitted curve at half-maximal effect; as to activity change, negative = cytotoxicity: % is scaled to controls: 0 for no effect and ±100 for the full control effect
Summary of the method: (§1)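 Cytotoxicity screen measuring ATP content by luciferase luminescence. Each compound is applied at five concentrations for 48 h at 37 C with 5% CO2.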

[8] = Primary redox qHTS assay for identification of artifact compounds. (AID 1845223); also: potency is read from the fitted curve at half-maximal effect
Summary of the method: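 Amplex Red (25 uM) and HRP (250 mU/mL) in HBSS, with compounds for 15 min, then 250 uM DTT for 30 min, room temperature, dark. Fluorescence 525/598 nm read; normalized to DMSO and 10 uM DA3003; Hill fit.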

[9] = test system: Hek293T; assay: Primary qHTS to identify gynecologic anti-cancer compounds using libraries of approved drugs and bioactive compounds (AID 1345084); conditions: Gynecologic cancer cell panel viability, ATPlite luminescence, 48 h, control line for the selectivity index; series mostly up to 57.5 µM; also: nearly all actives have a fitted effect of over 55% in size; also: potency is read from the fitted curve at half-maximal effect; as to activity change, negative = cytotoxicity: % is scaled to controls: 0 for no effect and ±100 for the full control effect
Summary of the method: as §1

[10] = test system: JEG-3; assay: as above; conditions: Gynecologic cancer cell panel viability, ATPlite luminescence, 48 h; series mostly up to 57.5 µM
Summary of the method: as §1

[11] = test system: OV90; assay: as above; conditions: Gynecologic cancer cell panel viability, ATPlite luminescence, 48 h; series mostly up to 57.5 µM
Summary of the method: as §1

[12] = test system: PA-1; assay: as above; conditions: Gynecologic cancer cell panel viability, ATPlite luminescence, 48 h; series mostly up to 57.5 µM
Summary of the method: as §1

[13] = Primary fluorescence-based thiol-reactive (MSTI) qHTS assay for identification of artifact compounds. (AID 1845221);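 also: potency is read from the fitted curve at half-maximal effect; thiol-reactive compounds lower the probe fluorescence signal; nearly all actives have a fitted effect of over 65% in size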
Summary of the method: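 Curve-fitted percent inhibition (4-parameter Hill) derived from fluorescence, Ex 525/Em 598 nm, scaled with Acetyl-MSTI and MSTI; 1 h incubation at room temperature.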

[14] = test system: Zika virus NS2B-NS3 protease (linked construct); assay: Primary screen NINDS Rhodamine qHTS for Zika virus inhibitors (AID 1347160); also: potency is read from the fitted curve at half-maximal effect; nearly all actives have a fitted effect of over 55% in size
Summary of the method: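 Purified NS2B-NS3 protease with the NS2B hydrophilic domain joined by a flexible linker (25 nM) in 10 mM Tris-HCl pH 8.0, 0.01% Tween 20, preincubated 15 min at RT with compound; Rhodamine110 peptide substrate 1.5 µM; fluorescence change over 15 min; 4-parameter Hill fit.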

[15] = molecular target: Cytochrome P450 2C9 (Homo sapiens) (UniProt P11712); assay: Cytochrome P450 family 2 subfamily C member 9 (CYP2C9) small molecule antagonists: luciferase biochemical (cell-free) qHTS assay (AID 1645842; active = well fitted curve in the direction sought with a large enough effect in the repeat runs; inconclusive = weak or mixed curves; inactive = no such curve, though single readings can be large; an effect the other way counts as inactive or inconclusive; also: potency is read from the fitted curve at half-maximal effect; nearly all actives have a fitted effect of over 55% in size)
Summary of the method: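 Luminescence, after 20 min with luciferin detection reagent, reflected CYP2C9 turnover during a 1 h NADPH-driven reaction at 37C. Enzyme-substrate mix contained 0.4% bovine serum albumin and was preincubated with compound 10 min at room temperature.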
Tags tell the direction and shape of the fitted curve.

UniProt P11712, sequence (P11712 whole entry, looked up): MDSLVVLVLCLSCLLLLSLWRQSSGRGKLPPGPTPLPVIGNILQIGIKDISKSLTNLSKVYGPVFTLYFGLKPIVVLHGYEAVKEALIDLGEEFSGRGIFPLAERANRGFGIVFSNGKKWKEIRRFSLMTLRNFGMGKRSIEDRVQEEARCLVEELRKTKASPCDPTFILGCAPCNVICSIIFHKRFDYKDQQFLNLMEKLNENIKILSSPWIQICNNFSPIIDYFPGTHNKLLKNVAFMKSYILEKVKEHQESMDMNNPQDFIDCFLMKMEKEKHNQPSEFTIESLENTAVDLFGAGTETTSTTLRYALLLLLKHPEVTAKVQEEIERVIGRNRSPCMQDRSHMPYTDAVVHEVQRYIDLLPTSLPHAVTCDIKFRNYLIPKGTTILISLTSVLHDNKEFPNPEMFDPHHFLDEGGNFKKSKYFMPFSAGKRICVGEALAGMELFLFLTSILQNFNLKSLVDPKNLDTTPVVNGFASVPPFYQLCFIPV
UniProt Q07343, sequence (Q07343 whole entry, looked up): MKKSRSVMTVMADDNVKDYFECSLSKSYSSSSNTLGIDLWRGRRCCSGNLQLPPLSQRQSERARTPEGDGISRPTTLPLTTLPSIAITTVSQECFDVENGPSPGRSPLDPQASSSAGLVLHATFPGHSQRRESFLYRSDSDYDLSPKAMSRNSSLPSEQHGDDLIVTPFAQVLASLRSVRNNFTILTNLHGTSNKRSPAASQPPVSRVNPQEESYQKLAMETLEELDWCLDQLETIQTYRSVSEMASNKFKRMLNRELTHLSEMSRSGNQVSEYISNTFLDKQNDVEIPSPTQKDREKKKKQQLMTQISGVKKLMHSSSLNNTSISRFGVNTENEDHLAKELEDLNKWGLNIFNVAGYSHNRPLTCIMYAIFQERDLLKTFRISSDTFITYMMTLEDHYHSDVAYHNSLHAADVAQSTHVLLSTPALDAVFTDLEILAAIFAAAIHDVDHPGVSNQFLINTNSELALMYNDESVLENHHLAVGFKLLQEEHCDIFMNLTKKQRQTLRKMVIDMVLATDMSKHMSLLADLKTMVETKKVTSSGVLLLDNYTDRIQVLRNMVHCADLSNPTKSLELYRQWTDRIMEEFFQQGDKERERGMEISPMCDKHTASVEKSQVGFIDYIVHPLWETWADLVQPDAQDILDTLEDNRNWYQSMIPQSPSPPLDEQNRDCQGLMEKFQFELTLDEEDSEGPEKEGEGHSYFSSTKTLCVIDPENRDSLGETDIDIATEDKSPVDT
UniProt P07203, sequence (P07203 whole entry, looked up): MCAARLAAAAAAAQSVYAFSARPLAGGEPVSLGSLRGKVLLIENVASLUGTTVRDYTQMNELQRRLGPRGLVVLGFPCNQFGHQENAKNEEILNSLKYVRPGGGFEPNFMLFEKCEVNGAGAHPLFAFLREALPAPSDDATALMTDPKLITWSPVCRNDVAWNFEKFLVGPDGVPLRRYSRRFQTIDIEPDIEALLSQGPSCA

**Q.** Which Potency [1] does the source give for `COc1ccc2c(OC)c3ccoc3nc2c1OC` here?
**A.** inconclusive: 9.51 µM [activator, partial curve]

**Q.** What about the Potency [2] of the same compound?
**A.** inactive

**Q.** And the Potency [3]?
**A.** inconclusive: 17.8 µM [inhibitor, full curve, poor fit]

**Q.** And the Potency [4]?
**A.** inconclusive: 18.3 µM [inhibitor, partial curve]

**Q.** And the Potency [5]?
**A.** inconclusive: 18.3 µM [inhibitor, single point]

**Q.** What about the Potency [6] of the same compound?
**A.** inconclusive: 22.7 µM [inhibitor, single point]

**Q.** What about the Potency [7] of the same compound?
**A.** inconclusive: 35.5 µM [cytotoxic, single point]

**Q.** Which results are given for `CC(=O)O[C@@H](C[C@@H]1C=C(C)C(=O)O1)[C@H](C)[C@H]1CCC2[C@@]3(C)CC[C@H](O[C@@H]4O[C@H](CO)[C@@H](O)[C@H](O)[C@H]4O[C@@H]4O[C@@H](C)[C@H](O)[C@@H](O)[C@H]4O)C(C)(C)C3CC[C@@]2(C)[C@@]12COC(=O)C2` (stereo partly drawn)?
**A.** Potency [8]: inconclusive: 4.01 µM [activator, partial curve, poor fit]; activity change, negative = cytotoxicity [9]: inactive: 15.9% [at 11.6 µM]; activity change, negative = cytotoxicity [10]: inactive: -9.52% [at 11.6 µM]; activity change, negative = cytotoxicity [11]: inactive: 15.4% [at 11.6 µM]; Potency [12]: inconclusive: 0.224 µM [cytotoxic, partial curve, poor fit]

**Q.** With `COc1ccc2c(c1)O[C@H](O[C@@H]1O[C@H](CO)[C@@H](O)[C@H](O)[C@H]1O)C(=O)N2` as the compound, how does the Potency [13] read?
**A.** inconclusive: 16.5 µM [inhibitor, single point]

**Q.** And the Potency [7]?
**A.** inactive

**Q.** For `O=C(O)c1ccnc2cc(C(OCC3CCC(F)(F)CC3)c3ccccc3Cl)[nH]c12` (stereo not drawn), which Potency [3] is on record?
**A.** inconclusive: 35.5 µM [inhibitor, single point]

**Q.** And the Potency [14]?
**A.** inconclusive: 5.62 µM [inhibitor, partial curve, poor fit]

**Q.** What about the Potency [4] of the same compound?
**A.** inactive

**Q.** What about the Potency [7] of the same compound?
**A.** inconclusive: 126 µM

**Q.** For `C=C1CC2C3(C)C(OC(C)=O)CC(=O)OC(C)(C)C3C(O)C(OC(C)=O)C2(C)C2C(=O)OC(C)C(=O)C12C` (stereo not drawn), which Potency [9] is on record?
**A.** inactive

**Q.** Which Potency [15] does the source give for `FC(F)(F)Oc1ccc(-c2ccc3nnc(C(F)(F)F)n3c2)cc1` here?
**A.** inconclusive: 6.01 µM [inhibitor, partial curve]

**Q.** And the Potency [5]?
**A.** inactive

**Q.** What about the Potency [8] of the same compound?
**A.** inactive

**Q.** And the Potency [7]?
**A.** inconclusive: 39.8 µM [cytotoxic, single point]

Reference: PubChem BioAssay (NCATS)
